{
  "source": "PubChem BioAssay (NCATS)",
  "note": "The inconclusive results got no clear call from the source; some entries with a clear call stand among them for comparison. Where the call is inconclusive, the potency comes from a doubtful curve fit. Calls of active or inactive are those of the source. Calls follow the shape of the dose curve; as a rule, active = well fitted cell-killing curve with a large enough effect; inconclusive = small, poorly fitted or top-dose-only effect, or effect the other way; inactive = no such curve, though single readings can be large or run the other way. Potency is read from the fitted curve at half-maximal effect; tags tell the direction and shape of the fitted curve.",
  "data": [
    {"assay": "Viability qHTS for spleen associated tyrosine kinase inhibitor (SYKi) naive MV4-11 cells (AID 1963823); also: nearly all actives have a fitted effect of over 40% in size", "settings": "MV4-11 AML viability, CellTiter-Glo luminescence, 72 h; viability (% of control): at 45 µM (top of the series)", "how_it_was_run": "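Compounds were dispensed acoustically onto plates, MV4-11 cells (SYKi-naive) added at 500 per well, and plates incubated 72 hr at 37 C. CellTiter-Glo was added and luminescence measured after 10 min.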", "values": [
      {"smiles": "COc1ccc2c(c1)CCCC2=O", "viability (% of control)": "inactive: 94.9%"},
      {"smiles": "CN(C)Cc1ccc(-c2cnn3c(-c4cccc(NC(=O)c5cccc(C(F)(F)F)c5)c4)ccnc23)cc1", "Potency": "active: 2.91 µM"},
      {"smiles": "CC/C=C\\CC1C(=O)CCC1CC(=O)OC", "note": "(stereo not given)", "viability (% of control)": "inactive: 86.8%"},
      {"smiles": "C[C@H](/C=C/[C@@]1(O)[C@H](C)CC(=O)CC1(C)C)O[C@@H]1O[C@H](CO[C@@H]2OC[C@@H](O)[C@H](O)[C@H]2O)[C@@H](O)[C@H](O)[C@H]1O", "viability (% of control)": "inactive: 72.1% [at 17.3 µM]"},
      {"smiles": "CC1(C)CC[C@]2(C(=O)OC3OC(CO)C(O)C(O)C3O)CC[C@]3(C)C(=CCC4[C@@]5(C)CC[C@H](OC6OC(C(=O)O)C(O)C(O)C6O)C(CO)(CO)C5CC[C@]43C)[C@@H]2C1", "note": "(stereo not given in full)", "Potency": "active: 0.693 µM"},
      {"smiles": "COc1ccc(C[C@H](N)C(=O)N[C@H]2[C@@H](O)[C@H](n3cnc4c(N(C)C)ncnc43)O[C@@H]2CO)cc1", "Potency": "inconclusive: 0.231 µM [cytotoxic, full curve]"},
      {"smiles": "CN1c2ccccc2C(=O)N2CCC3c4ccccc4NC3C21", "note": "(stereo not given)", "Potency": "active: 2.55 µM"},
      {"smiles": "C=C1C(=O)OC2CC3(C)C(O)C(=O)C=C(C)C3CC12", "note": "(stereo not given)", "Potency": "active: 23.1 µM"},
      {"smiles": "C[C@@H]1O[C@@H](O[C@H]2[C@H](OC(=O)[C@]34CCC(C)(C)C[C@H]3C3=CCC5[C@@]6(C)C[C@@H](O)[C@@H](O)[C@@](C)(CO)C6[C@H](O)C[C@@]5(C)[C@]3(C)CC4)OC[C@H](O)[C@@H]2O)[C@H](O)[C@H](O)[C@H]1O[C@@H]1OC[C@@H](O)[C@H](O[C@H]2O[C@H](C)[C@@H](O)[C@H](O)[C@@H]2O)[C@H]1O", "note": "(stereo not given in full)", "viability (% of control)": "inactive: 80.2% [at 9.25 µM]"},
      {"smiles": "C#C[C@]1(O)CC[C@H]2[C@@H]3CCc4cc(OC5CCCC5)ccc4[C@H]3CC[C@@]21C", "Potency": "inconclusive: 7.5 µM [cytotoxic, partial curve]"},
      {"smiles": "COc1cc(N2CCOCC2)ccc1NC(=O)c1csc(-c2cccnc2)n1", "Potency": "inconclusive: 0.164 µM [cytotoxic, full curve]"},
      {"smiles": "Cc1ccc(C(=O)Nc2noc3ccccc23)cc1", "viability (% of control)": "inactive: 57.5%"},
      {"smiles": "CCC(C)C(=O)O[C@H]1[C@@H](O[C@H]2O[C@H](CO)[C@@H](O)[C@H](O)[C@H]2O)O[C@H](CO)[C@@H](O)[C@@H]1O", "note": "(stereo not given in full)", "viability (% of control)": "inactive: 57.8% [at 17.3 µM]"},
      {"smiles": "CC(=O)O[C@@H]1CC[C@@]2(C)C(CC[C@]3(C)C2[C@H](O)C=C2[C@H]4[C@@H](C)[C@H](C)CC[C@]4(C)CC[C@]23C)[C@@]1(C)C(=O)O", "note": "(stereo not given in full)", "Potency": "inconclusive: 7.96 µM [cytotoxic, single point]"},
      {"smiles": "CC(=O)O[C@@H]1C=C2[C@H](CC[C@@]3(C)[C@@]2(O)CC[C@H]2Cc4c([nH]c5ccccc45)[C@@]23C)O[C@@H]1C(C)(C)O", "Potency": "inconclusive: 11.2 µM [cytotoxic, partial curve]"},
      {"smiles": "CC(C)(O)CS(=O)(=O)Nc1ccc2c(c1)CCN(C(=O)COc1cccnc1)C2", "Potency": "active: 0.0209 µM"},
      {"smiles": "CC(=O)N[C@@H](CC(=O)O)C(=O)N[C@@H](CCC(=O)O)C(=O)N[C@H](C(=O)N[C@@H](CC(=O)O)C(=O)Nc1ccc2c(C)cc(=O)oc2c1)C(C)C", "Potency": "inconclusive: 0.116 µM [cytotoxic, full curve, poor fit]"},
      {"smiles": "C=CC(C)(C)c1[nH]c2ccccc2c1C[C@@H]1NC(=O)[C@H](C)NC1=O", "viability (% of control)": "inactive: 79.1%"},
      {"smiles": "CC1CCC2(C(=O)OC3OC(CO)C(O)C(O)C3O)CCC3(C)C(=CCC4C5(C)CCC(O)C(C)(CO)C5CCC43C)C2C1(C)O", "note": "(stereo not given)", "viability (% of control)": "inactive: 74.3% [at 17.3 µM]"},
      {"smiles": "O=C(c1ccc(NS(=O)(=O)c2cccc3cccnc23)cc1)N1CCN(CC2CC2)CC1", "Potency": "inconclusive: 16.6 µM [cytotoxic, partial curve, poor fit]"},
      {"smiles": "COc1ccc(C(=O)NCc2cc(C(C)C)no2)cc1OC1CCN(C)CC1", "viability (% of control)": "inactive: 66.5%"},
      {"smiles": "CCC(C)(NC(=O)C(CCC(N)=O)NC(=O)C1CC(O)CN1C(=O)C(C)(C)NC(=O)C(C)(C)NC(=O)C(CC(C)C)NC(=O)CNC(=O)C(NC(=O)C(C)(C)NC(=O)C(C)(C)NC(=O)C(C)(C)NC(=O)C(Cc1ccccc1)NC(C)=O)C(C)C)C(=O)N1CC(O)CC1C(=O)NC(C)(C)C(=O)NC(CO)Cc1ccccc1", "note": "(stereo not given)", "Potency": "active: 1.74 µM"},
      {"smiles": "NS(=O)(=O)c1ccc(C(=O)O)cc1", "viability (% of control)": "inactive: 81.3%"},
      {"smiles": "C[C@@H]1C[C@H]2[C@@H]3C[C@H](F)C4=CC(=O)C(Cl)=C[C@]4(C)[C@@]3(F)[C@@H](O)C[C@]2(C)[C@@]1(O)C(=O)CO", "Potency": "active: 4.73 µM"},
      {"smiles": "C=C1C(=O)O[C@@H]2C[C@@H](C)[C@]34C[C@]5(C(=O)O[C@H]6CC(C)=C([C@H](C)CCCO)[C@H](OC(=O)C(C)CC)[C@H]65)[C@@H](C(C)=C3C[C@@H]12)[C@H]4OC(C)=O", "note": "(stereo not given in full)", "Potency": "active: 3.06 µM"}
    ]}
  ]
}
